Reference: the RNAGym collection of RNA variant scans (doi:10.1093/nar/gkz1192)
Read counts are not given, so values of variants with three or more changes are uncertain.

B1: CPEB3 Ribozyme (parent)
chain: UAACAGGGGGCCACAGCAGAAGCGUUCACGUCGCAGCCCCUGUCAGAUUCUGGUGAAUCUGCGAAUUCUGCUGUAUAUCUC

Variants of: B1
Test: self-cleavage, relative activity (ratio to wild type); higher = more cleavage; in vitro, sequencing
In short: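 Relative activity compares each variant's cleaved/total read fraction with that of the unmutated ribozyme. To get these fractions, barcoded CPEB3 ribozyme libraries from rounds of error-prone PCR were transcribed with T7 RNA polymerase for 5 hours at 37°C and then given 15 min of DNase I treatment before EDTA was added. The RNAs were reverse transcribed with template switching and sequenced on Illumina, and DNA sequencing linked barcodes to variants. A minimum of 5 reads applied, and three batches were averaged.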
For UAACAGGGGGCCGCAGCAGAAGCGUUCAAGCCGCAGCCCCUGCCAGAUUCUGGUGAAUCUGCGAAUUCUGCUGUAUAUCUC, the self-cleavage was 0.14. With UAACAGGGGGCCGCAGCAGAAGGGUUCACGUCGCAGCCCCUGUCAGAUUCUGGUGAAUCUGCGAAUUCUUCUGUAUAUCUC the self-cleavage was 0.15. Work on UAACAGGGGGCCGCAGCAGAAGGGUCCACGUCACAACCCCUGUCAGAUUCUGGAGAUUCUGCGAAUUCUGCUGUAUAUCUC yielded a self-cleavage of 0.22. UAACAGGGGGCCGCAGCAGAAGUGUUCACGUCGCAGCCCCUGUCGGAUUCUGGUGAACCUGCGAAUUCUGCUGUAUAUCUC gave a self-cleavage of 0.98. Variant UAACAGGGGGCCGCAGCAGAAGCGUUCACGUCGCAGCCCCUGUCAGAUUCUGGUGAUUCUGCGAAUUCUGCCGUAUAUCUC has a self-cleavage of 0.34. UAACAGGGGGCCGCAGCAGAAGUGUUCACGUCGCUGCCCCUGUCAGAUUCUCGCGAAUCUGCGAAUUCUGCUGUAUAUCUC gave a self-cleavage of 0.12. Variant UAACAGGGGGCCGCAGCAGAAGCGUUCACGUCGCAGCCCCUGUCAGAUUCUGGUGAGUCUGCGAAUUCUGCAGUAUAUCUC has a self-cleavage of 0.42. With UAACAGGGGGCCGCAGCAGAAGCGUUCAUGCCGCAGCCCCUGUCAGAUUCUAGUGAAUCUGCGAAUUCUGCUGUAUAUCUC the self-cleavage was 0.07. Variant UAACAGGGGGCCGCAGCAGAAGCGUUCACGUCGCAGCCCCUGUCAGAUUCUGGUGAAUCUGCGAAUUCUGCUGUGUUUCUC has a self-cleavage of 0.93. In the case of UAACAGGGGGCCGCAGCAGAAGCGUUCACGUCGCAGCCCCUGUCAGAUUCUGGUGAAUCUGCGUAUUCCGCUGUAUAACUC, the self-cleavage is reported as 0.14. For UAACAGGGGGCCGCAGCAGAAGGGUCCACGACGCAACCCCUGUCAGAUUCUGGUGAAUCUGCGGACUCUGCUGUAUAUCUC, the self-cleavage was 0.03. In the case of UAACAGGGGGCCGCAGUAGAAGCGUCCACGUCGCAGCCCCUGUCAGAUUCUCGGGAAUCUGCGAAUUCUGCUGUAUAUCUC, the self-cleavage is reported as 0.15. Work on UAACAGGGGGCCGCAGCAGAAGCGUUCACGUCGCAGCCCCUGUCAGAUUCUGGUGAGUCUGCGAGUACCGCUGUAUAUCUC yielded a self-cleavage of 0.16. Variant UAACAGGGGGCCGCAGCAGAAGGGCACACGUCGCAGCCCCUGUCAGAUUCUGGUGAAUCUGCGAAUUCUGCUGUAUAUCUC has a self-cleavage of 0.49. UAACAGGGGGCCGCAGCAGAAGCGUUCACGUAGCAGCCCCUGUCAGGUUCUGGUGUAUCUGCGAAUUCUGCUGUAUAUCUC gave a self-cleavage of 0.09. With UAACAGGGGGCCGCAGCAGAAGCGUUCACGUCGCAGCCCCUGUCAGAUUCUGGUGAAUCUGCGGAUUCAUCUGUAUAUCUC the self-cleavage was 0.09. Variant UAACAGGGGGCCGCAGCAGAAGCGUUCACGUCGCAGCCCCUGUCAGAUUCUGGUGAGUCCGCGAAUUCUGCCGUAUAUCUC has a self-cleavage of 0.08. UAACAGGGGGCCGCAGCAGAAGCGUUCACGUCGCAGCCCCUGUCAGAUUCUGGUGAAUCUGCGAUUUCUGCUGUACAUCUC gave a self-cleavage of 0.25. UAACAGGGGGCCGCAGCAGAAGCGUUCACGUGGCAGCCCCUGUCAGAUUCUGGUGUAUCUGCGAAUUCUGCUGUAUAUCUC gave a self-cleavage of 0.1. Variant UAACAGGGGGCCGCAGCAGAAGGGCCCACGUCGCAACCCCUGUCAGAUUCUGGUGAAUCUGCGAAUUCUGCUGUAUAUCUC has a self-cleavage of 0.2. With UAACAGGGGGCCGCAGCAGAAGCGUUCAUGUCGCAGCCCCAGUCUGAUUCUGGUGAAUCUGCGAAUUCUGCUGUAUAUCUC the self-cleavage was 0.07. UAACAGGGGGCCGCAGCAGAAGCGUUCACGUCGCAGCCCCUGUCAGAUUCUGGUGAGUCUGCGAAUCCUGCUGUAAAUCUC gave a self-cleavage of 0.19. UAACAGGGGGCCGUAGCAGAAGCGUUCACGUCGCAGCCCCUGUCAGAUUCUGGUGAAUGCGCGAAUUCUGCUGUAUAUCUC showed a self-cleavage of 0.11. UAACAGGGGGCCGCAGCAGAAGUGUUCACGUCGCAGCCCCUAUCAGAUUCUGGUGAAUCUGCGAAUUCUGCUGUAUAUCUC showed a self-cleavage of 0.09. For UAACAGGGGGCCGCAGCAGAAGCGUUCACGUCGCAGCCCCUGUCAGAUUCUGGUGAAUCUGCGAGUUCAGCUGUAUAUCUC, the self-cleavage was 0.39. Work on UAACAGGGGGCCGUAGCAGAAGCGUUCACGUCGCAGCCCCUGUCAGAUUCUGGCGAAUCUGCGAACUCUGCUGUAUAUCUC yielded a self-cleavage of 0.25. With UAACAGGGGGCCGAAGUAGAUGCGUUCACGUCGCAGCUCCUGUCAGAUUCCGGUGAAUCUGCGAAUUCUGCUGUAUAUCUC the self-cleavage was 0.11. With UAACAGGGGGCCGCAGUAGAAGCGCUCACGUCGCCGCCCCUGUCAGAUUCUGGUGAAUCUGCGAAAUCUGCCGUAUAUCUC the self-cleavage was 0.04. UAACAGGGGGCCGUAGCAGAAGCGUUCACGUCGCAGCCCCUGUCUGAUUCUGGUGAAUCUGCGGAUUCUGCUGUAUAUCUC showed a self-cleavage of 0.26. UAACAGGGGGCCGCAGUAGAAGCGUUCACGUCGCAGCCCCUGUCAGGUUCUGGUGAAUCUGCGAAUUCUGCUGUAUAUCUC gave a self-cleavage of 0.46. UAACAGGGGGCCGCAGCAGAAGCGUUCAUGUCGCAGCCCCUGUCAGAAUCUGGUGAAUCUGCGAAUUCUGCGGUACAUCUC showed a self-cleavage of 0.06. UAACAGGGGGCCGCAGCAGAAGCGUUCACGUCGCAGCCCCUGUCAGAUUCUGGUGAAUCUGCGAGUCCUGCUGUAUAUCUC showed a self-cleavage of 0.12. Variant UAACAGGGGGCCGCAGGAGAAACGCCCACGUCGCGGCCCCUGUCAGAUUCUGGUGAAUCUGCGAAUUCUGCUGCAUAUCUC has a self-cleavage of 0.06. Work on UAACAGGGGGCCGCAGCAGAAGCGUUCAUGUCGCAGCCCCUGACAGAUUCUGGUGAAUCUGCGAAUUCUGCUGUAUAUCUC yielded a self-cleavage of 0.24.
